Where “and” joins values, the source holds several entries; their conditions need not be identical. Equal values may be shown once. In all, about 420,000 compounds went through this assay and about 50,000 (12%) were called active. The inconclusive results got no clear call from the source; some entries with a clear call stand among them for comparison. Calls come from the whole dose curve; as a rule, active = well fitted inhibition curve with a large enough effect; inconclusive = small, poorly fitted or top-dose-only effect; inactive = flat fitted curve, though single readings scatter. A potency beside an inconclusive call is a rough fit, not a confirmed value.
Test: qHTS for Inhibitors of human tyrosyl-DNA phosphodiesterase 1 (TDP1): qHTS in cells in presence of CPT; note: nearly all actives have a fitted effect of over 55% in size
Details: chicken DT40 Tdp1-/-;hTDP1 cells + 20 nM CPT, ATP luminescence, 48 h; activity change, negative = growth inhibition: at 46.2 µM (top of the series) unless noted
Summary of the method: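 Cell growth measured by CellTiter-Glo luminescence after a minimum 48 h, 37 C compound exposure with 20 nM CPT in Tdp1-knockout DT40 cells stably expressing hTDP1, seeded 400/well; qHTS titration format.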
In the case of `COC(=O)c1ccccc1S(=O)(=O)NNC(=O)c1ccccc1-n1cccc1`, the “activity change, negative = growth inhibition” value is reported as inactive: -3.27%. In the case of `COCCNc1ncnc2ccc(-c3cccnc3)cc12`, the Potency is reported as active: 14.6 µM. In the case of `BrC(/C=N/Nc1nc(N2CCOCC2)nc(N2CCOCC2)n1)=C/c1ccccc1`, the Potency is reported as active: 16.4 µM. For `Cc1cc(=O)c(C(=O)Nc2cccc(N3CCCC3=O)c2)nn1-c1ccccc1F`, the “activity change, negative = growth inhibition” value was inactive: 9.52%. With `CN(C)Cc1c(O)ccc2c(=O)c(-c3ccc(Cl)cc3)coc12` the Potency was inconclusive: 29.1 µM [inhibitor, single point]. With `Cc1ccc(C)c(NC(=S)NC(NC(=O)/C=C/c2ccccc2)C(Cl)(Cl)Cl)c1` (stereo not drawn) the Potency was inconclusive: 16.4 µM [inhibitor, single point]. In the case of `CCOc1ccc(-c2nnc3ccc(SCc4ccc(C(=O)OC)o4)nn23)cc1`, the Potency is reported as inconclusive: 28.2 µM [inhibitor, single point]. In the case of `Cc1ccc(CCNc2ncnc3onc(-c4ccc(Cl)cc4)c23)cc1`, the Potency is reported as inconclusive: 23.1 µM [inhibitor, single point]. For `CC1CCN(S(=O)(=O)c2nnc(NC(=O)c3cccc(Cl)c3)s2)CC1`, the Potency was active: 20.6 µM and active: 13 µM. With `COc1ccccc1NS(=O)(=O)c1cc(NC(=O)c2cc(=O)[nH]c3ccccc23)ccc1N1CCOCC1` the Potency was inconclusive: 20.6 µM [inhibitor, single point]. In the case of `Cc1ccc(C(=O)CSc2nn3c(=O)c(C(C)(C)C)nnc3s2)cc1`, the Potency is reported as inconclusive: 29.1 µM [inhibitor, single point]. In the case of `c1ccc(-n2c(SCC3CCCCO3)nnc2-c2cccs2)cc1` (stereo not drawn), the Potency is reported as active: 18.4 µM. With `COc1ccc(CNC(=O)CN2C(=O)CSc3ccc(S(=O)(=O)N4CCC(C)CC4)cc32)cc1` the Potency was inconclusive: 11.6 µM [inhibitor, partial curve]. With `COc1ccc(/C=C/C(=O)Nc2nc(-c3cccs3)ns2)cc1` the Potency was inconclusive: 23.1 µM [inhibitor, single point]. In the case of `O=C(N1CCCCC1)N1CCN(C(c2ccccc2)c2ccccc2)CC1`, the Potency is reported as inconclusive: 25.9 µM [inhibitor, single point]. For `COc1ccc(S(=O)(=O)N(C)C[C@H]2Oc3ccc(NC(=O)Nc4ccc5c(c4)OCO5)cc3CC(=O)N([C@@H](C)CO)C[C@@H]2C)cc1`, the Potency was inconclusive: 29.1 µM [inhibitor, single point]. For `CCCc1nc2c(sc3nc4c(cc32)COC(C)(C)C4)c(=O)n1CCN(C)C`, the Potency was inconclusive: 29.1 µM [inhibitor, single point]. With `COc1ccc(NC(=O)CSc2nc3c(oc4ccccc43)c(=O)n2Cc2ccco2)cc1Cl` the Potency was inconclusive: 20.6 µM [inhibitor, single point]. For `CC(OC(=O)CCNS(=O)(=O)c1ccccc1)C(=O)Nc1ccc(S(=O)(=O)N2CCCCC2)cc1` (stereo not drawn), the Potency was inconclusive: 29.1 µM [inhibitor, single point]. In the case of `N/C(=N\S(=O)(=O)c1ccccc1)c1ccc([N+](=O)[O-])cc1`, the Potency is reported as inconclusive: 29.1 µM [inhibitor, single point]. In the case of `COc1ccc(CNC(=O)C2CCC(CNS(=O)(=O)c3ccc4c(c3)CCCC(=O)N4)CC2)cc1` (stereo not drawn), the Potency is reported as inconclusive: 20.6 µM [inhibitor, single point]. In the case of `Cc1ccc(-c2cn3c(n2)sc2cc(C(=O)NCCC4=CCCCC4)ccc23)cc1`, the “activity change, negative = growth inhibition” value is reported as inactive: -9.49%. In the case of `CCN1c2ccccc2-c2nc3ccccc3n2C1c1ccccn1` (stereo not drawn), the Potency is reported as inconclusive: 29.1 µM [inhibitor, single point]. In the case of `COc1ccc([C@@H]2CC=C(C(=O)O)[C@H](c3ccc(C(C)(C)C)cc3)N2S(=O)(=O)c2ccc(C)cc2)cc1OC`, the Potency is reported as inconclusive: 29.1 µM [inhibitor, single point]. In the case of `Cc1cc(NC(=O)c2noc3c2CCCCC3)nn1Cc1ccc(Cl)cc1`, the “activity change, negative = growth inhibition” value is reported as inactive: -28.8%. With `Cc1ccc(Cc2c(-c3ccc(Br)cc3)nc3ccc(Br)cn23)cc1` the Potency was active: 18.4 µM. For `C[C@@H](CSc1ccccc1)CN1CC[C@H](NC(=O)OCc2ccccc2)CCC1=O`, the Potency was inconclusive: 35.5 µM [inhibitor, single point] and inconclusive: 29.1 µM [inhibitor, single point]. For `CCCCN(CCCNC(=O)c1ccc2c(c1)NC(=O)CN2C)c1ccccc1`, the Potency was inconclusive: 29.1 µM [inhibitor, single point]. For `C[C@@]12C(=O)Nc3cc(F)c(F)cc3C(=O)N1[C@H]1c3ccccc3OC[C@@H]1[C@@H]2c1ccccc1`, the Potency was inconclusive: 29.1 µM [inhibitor, single point]. In the case of `O=C(COC(=O)c1ccco1)NCc1ccc2c(c1)OCO2`, the Potency is reported as inconclusive: 25.9 µM [inhibitor, single point]. In the case of `CCOc1ncccc1C(=O)OC(C)C(=O)NC(=O)NC1CCCCC1` (stereo not drawn), the “activity change, negative = growth inhibition” value is reported as inactive: -97.4%. For `CCCCN(CCCC)c1nc2ccccc2nc1NS(=O)(=O)c1ccc(NC(C)=O)cc1`, the Potency was inconclusive: 32.6 µM [inhibitor, single point]. With `COc1ccc(-c2nc(S(=O)(=O)c3ccc(Cl)cc3)c(NCc3ccccc3)o2)cc1` the Potency was active: 16.4 µM. For `Cc1ccc(-c2cc(C(=O)Nc3cccc(S(=O)(=O)N(C)C)c3)c3ccccc3n2)o1`, the Potency was inconclusive: 29.1 µM [inhibitor, single point]. In the case of `Cc1ccccc1NC(=O)COc1coc(CN2CCCc3ccccc32)cc1=O`, the Potency is reported as active: 20.6 µM. In the case of `COc1ccc(CNC(=O)C(=O)NC2CCC(C)CC2)cc1` (stereo not drawn), the “activity change, negative = growth inhibition” value is reported as inactive: -13.3%. In the case of `CCC(C)c1ccc(NC(=O)C2CCN(c3ncccn3)CC2)cc1` (stereo not drawn), the Potency is reported as inconclusive: 29.1 µM [inhibitor, single point]. For `CCOC(=O)N1CCN(C(=O)C[C@@H]2C[C@@]3(C(=O)OCC)CCC=C3N(Cc3ccc(Cl)cc3Cl)C2=O)CC1`, the Potency was active: 18.4 µM. With `C#CCOCCOCCOCCNc1nc(N2CCN(C(=O)CCCCCCCCCCNC(=O)[C@@H](CCSC)n3cc(CCO)nn3)CC2)nc(N2CCN(C(=O)CCCCCCCCCCNC(=O)[C@H](CO)n3cc(CCCCCN)nn3)CC2)n1` the Potency was inconclusive: 20.6 µM [inhibitor, single point]. With `COc1ccc(C(=O)CN2C(=O)NC3(CCCCCC3)C2=O)cc1` the “activity change, negative = growth inhibition” value was inactive: -2.33%. For `CCC(CC)c1nnc(NC(=O)Oc2ccccc2)s1`, the “activity change, negative = growth inhibition” value was inactive: -13.3%. In the case of `CCOC(=O)CSc1nc2c(sc3ccccc32)c(=O)n1CCO`, the Potency is reported as inconclusive: 25.9 µM [inhibitor, single point]. In the case of `COc1cc(Br)cc(C2C3=C(CCCC3=O)N(c3ccc(F)cc3)C3=C2C(=O)CCC3)c1O`, the Potency is reported as inconclusive: 23.1 µM [inhibitor, single point]. In the case of `Cc1nc2c(nnn2Cc2ccccc2Cl)c(=O)[nH]1`, the “activity change, negative = growth inhibition” value is reported as inactive: -6.17%. In the case of `COc1ccc(OCC(O)Cn2c(NCCO)nc3c2c(=O)n(C)c(=O)n3C)cc1` (stereo not drawn), the Potency is reported as active: 9.2 µM. With `Cc1ccc(/C=C2\SC(=S)N(CCC(=O)NNC(=O)c3ccccc3O)C2=O)cc1` the Potency was inconclusive: 23.1 µM [inhibitor, single point]. With `Cc1ccc([N+](=O)[O-])cc1S(=O)(=O)Nc1ccc(-c2ccc(N3CCCC3)nn2)cc1` the “activity change, negative = growth inhibition” value was inactive: -28.7%. For `CC(C)c1ccc(S(=O)(=O)N2CCN(C(C)C(=O)Nc3ccccc3-c3ccccc3)CC2)cc1` (stereo not drawn), the Potency was active: 18.4 µM. For `COc1cc(C(=O)OC(C)C(=O)NC(=O)NC2CCCCC2)ccc1OC(F)F` (stereo not drawn), the “activity change, negative = growth inhibition” value was inactive: -0.219%. With `CC(=O)c1ccc(S(=O)(=O)Nc2ccc(C(=O)NCC(c3ccco3)N3CCCC3)cc2)cc1` (stereo not drawn) the “activity change, negative = growth inhibition” value was inactive: 1.4%. In the case of `C=CCOC(=O)C1=C[C@@H](c2coc3ccccc3c2=O)C[C@@H](OCc2ccc(CO)cc2)O1`, the Potency is reported as inconclusive: 25.9 µM [inhibitor, single point]. For `CCN(CC)CCCNc1ncnc2c1cnn2-c1ccc(C)c(C)c1`, the Potency was inconclusive: 29.1 µM [inhibitor, single point]. With `CCSc1nnc(-c2cc(Br)ccc2N=Cc2c(C)[nH]n(-c3ccccc3)c2=O)c(=O)[nH]1` the Potency was inconclusive: 13 µM [inhibitor, partial curve]. In the case of `C#CCOCCOCCOCCNc1nc(N2CCN(C(=O)CCCCCCCCCCNC(=O)[C@@H](CCC(=O)O)n3cc(CCCCCN)nn3)CC2)nc(N2CCN(C(=O)CCCCCCCCCCNC(=O)[C@H](CCCCN)n3cc(C[C@@H](C)CC)nn3)CC2)n1`, the Potency is reported as inconclusive: 29.1 µM [inhibitor, single point]. With `Cc1onc(-c2ccccc2Cl)c1C(=O)Nc1nnc(-c2cccc([N+](=O)[O-])c2)s1` the Potency was inconclusive: 29.1 µM [inhibitor, single point]. For `Cc1[nH]n(-c2cccc([N+](=O)[O-])c2)c(=O)c1-c1ccccc1`, the “activity change, negative = growth inhibition” value was inactive: -24.1%. In the case of `Cc1ccc2c(c1)C(c1ccccc1)N(C(=O)c1c(F)cccc1Cl)CC(=O)N2` (stereo not drawn), the Potency is reported as inconclusive: 29.1 µM [inhibitor, single point]. With `C[C@@H]1CN([C@H](C)CO)C(=O)c2cc(C#Cc3ccccc3F)cnc2O[C@@H]1CN(C)S(=O)(=O)c1ccccc1F` the “activity change, negative = growth inhibition” value was inactive: -1.68%. With `O=c1cnc2cnc(Oc3ccccc3)nc2n1Cc1ccc(F)cc1` the Potency was inconclusive: 29.1 µM [inhibitor, single point]. With `Cc1[nH]n(-c2ccc(Cl)cc2)c(=O)c1C(=O)c1ccccc1` the Potency was inconclusive: 20.6 µM [inhibitor, single point]. For `Cc1nn(CCCC(=O)NC2CCC(C)CC2)c(=O)c2nn(-c3ccccc3)c(C)c12` (stereo not drawn), the Potency was inconclusive: 29.1 µM [inhibitor, single point]. With `NC(N)=N/N=C/c1ccccc1Cl` the activity change, negative = growth inhibition was inconclusive: -37.6% [inhibitor]. With `CNC(=S)N/N=C/c1ccc(-c2cccc(C(=O)O)c2)o1` the Potency was active: 9.2 µM.

Source: PubChem BioAssay AID686979 (National Center for Advancing Translational Sciences (NCATS), 2013)
% is set by controls: 0 for no effect and ±100 for the full control effect; potency is the fitted concentration of half-maximal effect; tags give direction and shape of the fitted curve.
